Results as given in a collection of fitness landscapes (doi:10.1016/j.celrep.2020.107928).
Over roughly 81,000 sequences, “one-hybrid fitness for binding NBS DNA” has its median near -0.1; the highest 2% begin near 0.36. This is one part of the list.

B1: Caulobacter ParB omega fusion; a variant is named by its letters at X, in order, B8GW30 (parent)
chain: MESVVVGEPGMSEGRRGLGRGLSALLGEVDAAPAQAPGEQLGGSREAPIEILQRNPDQPRRTFREEDLEDLSNSIREKGVLQPILVRPSPDTAGEYQIVAGERAWRAAQRAGLKTVPIMVRELDDLAVLEIGIIENVQRADLNVLEEALSYKVLMEKFERTQENIAQTIGKSXSHVANXMRLLXLPDEVQSYLVSGELTAXHARAIAAAADPVALAKQIIEGGLSVRETEALARKAPNLSAGKSKGGRPPRVKDTDTQALESDLSSVLGLDVSIDHRGSTGTLTITYATLEQLDDLCNRLTRGI

Variants of: B1
Experiment: one-hybrid fitness for binding NBS DNA (the Noc-binding site; scaled: cognate 1, non-cognate 0); higher = stronger binding
Settings: with NBS DNA site
Outline: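 Pre- and post-selection plasmids were Illumina-sequenced, three replicate libraries were pooled, and any variant with under 10 reads was removed. The libraries were Caulobacter ParB with four specificity codons randomised, selected in E. coli USO through a HIS3 reporter whose site is 19 bp from the promoter. Cells grew 48 hours at 37°C on M9 without histidine, with 0.1 mM IPTG and 5 mM 3-AT. Fitness is the log change in variant-to-wild-type read ratio, rescaled against cognate and non-cognate.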

Point of comparison: QRMM, “one-hybrid fitness for binding NBS DNA” value 0.334. Against it:
- TDHS — lower, ≤ 0.2
- FTGV — lower, ≤ 0.2
- IPML — lower, ≤ 0.2
- QNGY — lower, ≤ 0.2
- SGLN — lower, ≤ 0.2
- TVSL — lower, ≤ 0.2
- PGKC — lower, ≤ 0.2
- PRAC — lower, ≤ 0.2
- KSFR — lower, ≤ 0.2
- FLFC — lower, ≤ 0.2
- MRVF — lower, ≤ 0.2
- DYFS — lower, ≤ 0.2
- CLHC — lower, ≤ 0.2
- DKTG — lower, ≤ 0.2
- WENE — lower, ≤ 0.2
- NSSG — lower, ≤ 0.2
- TREY — lower, ≤ 0.2
- FQYR — lower, ≤ 0.2
- GQNT — lower, ≤ 0.2
- AYTC — lower, ≤ 0.2
- PAWG — lower, ≤ 0.2
- KVRI — lower, ≤ 0.2
- VAIT — lower, ≤ 0.2
- RSVD — lower, ≤ 0.2
- FYMG — lower, ≤ 0.2
- IYER — lower, ≤ 0.2
- VKPP — lower, ≤ 0.2
- QRTI — lower, 0.327
- VNTE — lower, ≤ 0.2
- CTQP — lower, ≤ 0.2
- RSAL — lower, ≤ 0.2
- ATIT — lower, ≤ 0.2
- LNKM — lower, ≤ 0.2
- MMML — lower, ≤ 0.2
- TKDS — lower, ≤ 0.2
- QHTF — lower, ≤ 0.2
- PTVG — lower, ≤ 0.2
- RPPE — lower, ≤ 0.2
- KKTI — lower, ≤ 0.2
- KGSM — lower, ≤ 0.2
- MWIF — lower, ≤ 0.2
- SSNP — lower, ≤ 0.2
- PPEG — lower, ≤ 0.2
- GWTC — lower, ≤ 0.2
- IQCV — lower, ≤ 0.2
- NKNM — lower, ≤ 0.2
- YYMC — lower, ≤ 0.2
- AAVK — lower, ≤ 0.2
- IYDP — lower, ≤ 0.2
- HATY — lower, ≤ 0.2
- QMAV — lower, ≤ 0.2
- IRVQ — lower, 0.203
- HSWF — lower, ≤ 0.2
- DNMW — lower, ≤ 0.2
- HQIS — lower, ≤ 0.2
- RIPL — lower, ≤ 0.2
- KYLP — lower, ≤ 0.2
- ESHL — lower, ≤ 0.2
- VFVF — lower, ≤ 0.2
- SIHR — lower, ≤ 0.2
- MVHG — lower, ≤ 0.2
- CLSK — lower, ≤ 0.2
- NNGG — lower, ≤ 0.2
- ISCK — lower, ≤ 0.2
- QYWR — higher, 0.414
- HSVF — lower, ≤ 0.2
- HNRA — lower, ≤ 0.2
- SFPV — lower, ≤ 0.2
- LKRK — lower, ≤ 0.2
- QLGK — lower, ≤ 0.2
- QKIK — lower, ≤ 0.2
- QDQC — lower, ≤ 0.2
- DTKN — lower, ≤ 0.2
- YKSR — lower, ≤ 0.2
- PERA — lower, ≤ 0.2
- PDME — lower, ≤ 0.2
- KPHM — lower, ≤ 0.2
- VSYI — lower, ≤ 0.2
- SLSK — lower, ≤ 0.2
- MPNM — lower, ≤ 0.2
- MEKW — lower, ≤ 0.2
- HSWP — lower, ≤ 0.2
- VALG — lower, ≤ 0.2
- PRCF — lower, ≤ 0.2
- WMPP — lower, ≤ 0.2
- RGTR — lower, ≤ 0.2
- LMNY — lower, ≤ 0.2
- WGNG — lower, ≤ 0.2
- GKWG — lower, ≤ 0.2
- HIGR — lower, ≤ 0.2
- TYKR — lower, 0.229
- GERR — lower, ≤ 0.2
- SWAR — lower, ≤ 0.2
- GPYR — lower, ≤ 0.2
- RVMD — lower, ≤ 0.2
- IVSC — lower, ≤ 0.2
- QWIS — lower, ≤ 0.2
- TTAE — lower, ≤ 0.2
- EVNE — lower, ≤ 0.2
- PPQM — lower, ≤ 0.2
- SIQN — lower, ≤ 0.2
- CTRH — lower, ≤ 0.2
- SCNR — lower, ≤ 0.2
- PWCR — lower, ≤ 0.2
- LLTL — lower, ≤ 0.2
- SAWC — lower, ≤ 0.2
- VAGW — lower, ≤ 0.2
- HLRF — lower, ≤ 0.2
- RCWK — lower, ≤ 0.2
- GTTL — lower, ≤ 0.2
- RESW — lower, ≤ 0.2
- MMVT — lower, ≤ 0.2
- WTHF — lower, ≤ 0.2
- TVAI — lower, ≤ 0.2
- GMLG — lower, ≤ 0.2
- QYPT — lower, 0.255
- HKFT — lower, ≤ 0.2
- WNKG — lower, ≤ 0.2
- HVCC — lower, ≤ 0.2
- LERF — lower, ≤ 0.2
- ADHS — lower, ≤ 0.2
- RACD — lower, ≤ 0.2
- HLRC — lower, ≤ 0.2
- DATP — lower, ≤ 0.2
- VVPA — lower, ≤ 0.2
- TTMG — lower, ≤ 0.2
- ILKH — lower, ≤ 0.2
- NSFR — lower, ≤ 0.2
- GPIV — lower, ≤ 0.2
- PLEG — lower, ≤ 0.2
- AGPI — lower, ≤ 0.2
- PMNG — lower, ≤ 0.2
- RWWC — lower, ≤ 0.2
- VCQY — lower, ≤ 0.2
- GVIP — lower, ≤ 0.2
- DLPA — lower, ≤ 0.2
- KYLR — lower, ≤ 0.2
- AVHR — lower, ≤ 0.2
- TQPK — lower, ≤ 0.2
- FKTG — lower, ≤ 0.2
- TSRF — lower, ≤ 0.2
- WFSV — lower, ≤ 0.2
- RIMD — lower, ≤ 0.2
- HNFA — lower, ≤ 0.2
- RRKA — higher, 0.712
- FHMR — lower, ≤ 0.2
- EGRC — lower, ≤ 0.2
- TGCY — lower, ≤ 0.2
- HCWG — lower, ≤ 0.2
- RALW — lower, ≤ 0.2
- SRVT — lower, ≤ 0.2
- HRMW — lower, ≤ 0.2
- NQCI — lower, ≤ 0.2
- TSQV — lower, ≤ 0.2
- RYSP — lower, ≤ 0.2
- CPPH — lower, ≤ 0.2
- LRIV — lower, ≤ 0.2
- RQCQ — lower, ≤ 0.2
- FKNT — lower, ≤ 0.2
- LINL — lower, ≤ 0.2
- GLTW — lower, ≤ 0.2
- RINQ — lower, ≤ 0.2
- KAWC — lower, ≤ 0.2
- CTKS — lower, ≤ 0.2
- RFHL — lower, ≤ 0.2
- VASV — lower, ≤ 0.2
- LTIP — lower, ≤ 0.2
- WQMC — lower, ≤ 0.2
- GGVF — lower, ≤ 0.2
- QMGK — lower, 0.221
- SASW — lower, ≤ 0.2
- VAPM — lower, ≤ 0.2
- RHMW — lower, ≤ 0.2
- TQDK — lower, ≤ 0.2
- PAMN — lower, ≤ 0.2
- CFAW — lower, ≤ 0.2
- RMLW — lower, ≤ 0.2
- TLWS — lower, ≤ 0.2
- HLQL — lower, ≤ 0.2
- REVW — lower, ≤ 0.2
- QLNT — higher, 0.45
- PRQC — lower, ≤ 0.2
- LLWC — lower, ≤ 0.2
- NQWL — lower, ≤ 0.2
- SGIR — lower, ≤ 0.2
- GCTT — lower, ≤ 0.2
- RMYQ — lower, ≤ 0.2
- TVSN — lower, ≤ 0.2
- KTAL — lower, ≤ 0.2
- MPQS — lower, ≤ 0.2
- DRIF — lower, ≤ 0.2
- HRYC — lower, ≤ 0.2
- HLPN — lower, ≤ 0.2
- VQSM — lower, ≤ 0.2
- RYAH — lower, ≤ 0.2
- EINM — lower, ≤ 0.2
- QMQM — lower, ≤ 0.2
- RALR — lower, 0.32
- YTIL — lower, ≤ 0.2
- SLFE — lower, ≤ 0.2
- YPVL — lower, ≤ 0.2
- YHAN — lower, ≤ 0.2
- PTVI — lower, ≤ 0.2
- DIRV — lower, ≤ 0.2
- QIAH — lower, ≤ 0.2
- WRKC — lower, ≤ 0.2
- FSVC — lower, ≤ 0.2
- PQMR — lower, ≤ 0.2
- VMQC — lower, ≤ 0.2
- DSDR — lower, ≤ 0.2
- DYYL — lower, ≤ 0.2
- QMYY — lower, ≤ 0.2
- TCQR — lower, ≤ 0.2
- NQCR — lower, ≤ 0.2
- CDET — lower, ≤ 0.2
- TLMM — lower, ≤ 0.2
- TWSY — lower, ≤ 0.2
- NQWS — lower, ≤ 0.2
- PMYE — lower, ≤ 0.2
- QCHT — higher, 0.551
- LDQG — lower, ≤ 0.2
- ASPQ — lower, ≤ 0.2
- NVSV — lower, ≤ 0.2
- LFEC — lower, ≤ 0.2
- PGLR — lower, ≤ 0.2
- VKEL — lower, ≤ 0.2
- QERT — lower, ≤ 0.2
- QCLR — higher, 0.562
- DSGR — lower, ≤ 0.2
- HDHG — lower, ≤ 0.2
- QQGV — lower, ≤ 0.2
- GRCV — lower, ≤ 0.2
- VPPI — lower, ≤ 0.2
- VLAV — lower, ≤ 0.2
- PWTV — lower, ≤ 0.2
- QYHK — lower, ≤ 0.2
- SRTE — lower, ≤ 0.2
- ECNL — lower, ≤ 0.2
- KHRC — lower, ≤ 0.2
- RWMD — lower, ≤ 0.2
- GPKR — lower, 0.269
- RIDN — lower, ≤ 0.2
- PWYR — lower, ≤ 0.2
- DMEP — lower, ≤ 0.2
- IHHT — lower, ≤ 0.2
- KELC — lower, ≤ 0.2
- TPEF — lower, ≤ 0.2
- QKIN — lower, ≤ 0.2
- FIAS — lower, ≤ 0.2
- SFCM — lower, ≤ 0.2
- IGLS — lower, ≤ 0.2
- CRAK — lower, ≤ 0.2
- NGQP — lower, ≤ 0.2
- CSIK — lower, ≤ 0.2
- RYLK — lower, ≤ 0.2
- STIG — lower, ≤ 0.2
- PVAA — lower, ≤ 0.2
- DLKK — lower, ≤ 0.2
- VLML — lower, ≤ 0.2
- PHFE — lower, ≤ 0.2
- VPPG — lower, ≤ 0.2
- GWHR — lower, ≤ 0.2
- EQVF — lower, ≤ 0.2
- IAVR — lower, ≤ 0.2
- GAVV — lower, ≤ 0.2
- DSPA — lower, ≤ 0.2
- YFKY — lower, ≤ 0.2
- ARSY — lower, ≤ 0.2
- PSIE — lower, ≤ 0.2
- YHSS — lower, ≤ 0.2
- VEKS — lower, ≤ 0.2
- QEAC — lower, ≤ 0.2
- MKYL — lower, ≤ 0.2
- QEQD — lower, ≤ 0.2
- WARQ — lower, ≤ 0.2
- FAKM — lower, ≤ 0.2
- QIRP — lower, ≤ 0.2
- KTMH — lower, ≤ 0.2
- TYIR — lower, ≤ 0.2
- RQCK — lower, ≤ 0.2
- SYSS — lower, ≤ 0.2
- CLPT — lower, ≤ 0.2
- MNNR — lower, ≤ 0.2
- FLPA — lower, ≤ 0.2
- SSPC — lower, ≤ 0.2
- FEKY — lower, ≤ 0.2
- AGSG — lower, ≤ 0.2
- TLDD — lower, ≤ 0.2
- TLLK — lower, ≤ 0.2
- SPFT — lower, ≤ 0.2
- YQNT — lower, ≤ 0.2
- EKFS — lower, ≤ 0.2
- VNHM — lower, ≤ 0.2
- LNSD — lower, ≤ 0.2
- IHPV — lower, ≤ 0.2
- ILPW — lower, ≤ 0.2
- LEPK — lower, ≤ 0.2
- YYNG — lower, ≤ 0.2
- RPNS — lower, ≤ 0.2
- SAFV — lower, ≤ 0.2
- FISG — lower, ≤ 0.2
- MDST — lower, ≤ 0.2
- CPRN — lower, ≤ 0.2
- PSDT — lower, ≤ 0.2
- GSWT — lower, ≤ 0.2
